# Data taken from the RNAGym collection of RNA variant scans (doi:10.1093/nar/gkz1192).
# Read counts are not given, so values of variants with three or more changes are uncertain.
# B1: CPEB3 Ribozyme (parent)
# chain: UAACAGGGGGCCACAGCAGAAGCGUUCACGUCGCAGCCCCUGUCAGAUUCUGGUGAAUCUGCGAAUUCUGCUGUAUAUCUC
# Variants of: B1
# Assay: self-cleavage, relative activity (ratio to wild type); higher = more cleavage; in vitro, sequencing
# Procedure, shortened: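 Barcoded CPEB3 ribozyme mutants, produced by rounds of error-prone PCR, self-cleaved while being transcribed with T7 RNA polymerase for 5 hours at 37°C and during a subsequent 15 min DNase I step before EDTA was added. Sequencing of template-switched cDNA on Illumina gave cleaved and total reads, and DNA sequencing assigned barcodes to variants. Each variant's relative activity is its cleaved/total read fraction divided by the unmutated ribozyme's fraction, averaged across three batches. A variant needed a minimum of 5 reads.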
row,Variant,self-cleavage
1,A28G U51C U60A U66C,0.15
2,A28G U51C U60C U69C,0
3,A28G U51C U60C U69C U74C,0.1
4,A28G U51C U60C U76C,0.29
5,A28G U51C U67G,0.09
6,A28G U51C U72C,0.42
7,A28G U51G A56U U72C U80C,0.26
8,A28G U51G U58C C62U,0.11
9,A28G U54A A56G,0.34
10,A28G U54A U72A,0.35
11,A28G U54C A77G,0.56
12,A28G U54C U60A U69C U72C,0.17
13,A28G U54C U60C A64G U69C,0.32
14,A28G U54C U67A,0.24
15,A28G U54C U67C U80A,0.09
16,A28G U54C U74C,0.83
17,A28G U54G A56U U66C U78C,0.11
18,A28G U54G U72C,0.45
19,A28G U58A C59G U78C,0.41
20,A28G U58A U69C U72G A77G U80C,0.06
21,A28G U58A U72C,0.1
22,A28G U58C A64G,0.17
23,A28G U58C C68G U78C,0.07
24,A28G U58C U72C,0.24

row,Variant,self-cleavage
1,A28G U60A A64C U69C,0.08
2,A28G U60A A64U U72C U80C,0.1
3,A28G U60A A65G U67G,0.06
4,A28G U60C A64U U76A,0.2
5,A28G U60C A75U U78C,0.1
6,A28G U60C U66C,0.4
7,A28G U60C U76C,0.38
8,A28G U60C U78C U80G,0.2
9,A28G U60G U80A,0.25
10,A28G U66A U72C,0.18
11,A28G U66A U78C,0.19
12,A28G U66C A75G,0.13
13,A28G U67A U74A,0.25
14,A28G U67C U76A,0.13
15,A28G U67C U76A U80C,0.19
16,A28G U67G U69A,0.17
17,A28G U69A A77G,0.21
18,A28G U69C U72C,0.13
19,A28G U69C U72C U74C,0.12
20,A28G U69C U78A,0.14
21,A28G U69G U76C A77G,0.26
22,A28G U72A U74A U76C,0.87
23,A28G U72C A75U,0.89
24,A28G U72C A77G,0.83

row,Variant,self-cleavage
1,A28G U72C U74A A75C C79U,1.09
2,A28G U72C U74C A75G,0.38
3,A28G U72C U76C U78C,0.87
4,A28G U72C U78A,0.68
5,A28G U72C U80A,0.75
6,A28G U74A U78C,1.21
7,A28G U74G A75U,1.12
8,A28G U78C U80A,0.85
9,A28U A35C A65G G73A,0.46
10,A28U A35C U51C U72A,0.15
11,A28U A35G A45G,1.21
12,A28U A35G A45G A77U,1.18
13,A28U A35G A65G U66C,0.31
14,A28U A35G A77G,1.18
15,A28U A35G C62A,0.15
16,A28U A35G C62U,0.27
17,A28U A35G C79U,1.41
18,A28U A35G G63C A64G U80C,1.12
19,A28U A35G U41A U54A,0.19
20,A28U A35G U41C,0.87
21,A28U A35G U43A U51C U72C,1.15
22,A28U A35G U48C A56G U69A,0.31
23,A28U A35G U49A U51A U54C G70U,0.18
24,A28U A35G U54A,1.26

row,Variant,self-cleavage
1,A28U A35G U58A U76C,0.84
2,A28U A35U A56U A57U U72A,0.14
3,A28U A35U C37U,0.17
4,A28U A35U C50U A65G,0.16
5,A28U A35U G36A U72C,0.07
6,A28U A35U G52A U69A,0.14
7,A28U A35U U41A C71G,0.1
8,A28U A35U U43A U54C,0.39
9,A28U A35U U48C U67C,0.08
10,A28U A35U U48C U69C,0.1
11,A28U A35U U67C,0.09
12,A28U A35U U69A A75G,0.08
13,A28U A35U U80C,0.44
14,A28U A45C A56G,0.21
15,A28U A45G A64G U69A U76C A77G,0.13
16,A28U A45G A64G U72A,0.23
17,A28U A45G C50U A64G,0.29
18,A28U A45G G46A U72A,0.42
19,A28U A45G U49C U58C U80C,0.05
20,A28U A45G U60A U67A U69A,0.11
21,A28U A45G U67G,0.18
22,A28U A45G U74C,0.87
23,A28U A45G U80C,0.82
24,A28U A45U G63U A65G U67G U72C,0.09

row,Variant,self-cleavage
1,A28U A47C C79A,0.26
2,A28U A47G A57U C79U,0.12
3,A28U A47G C71G,0.23
4,A28U A47G U80C,1
5,A28U A47U A64U U72C,0.11
6,A28U A47U A75U A77G,0.19
7,A28U A56G A65G U69C U74C A77U,0.28
8,A28U A56G U76A,0.66
9,A28U A56U U72A,0.12
10,A28U A57G A64U A75G U78C,0.09
11,A28U A57G U58C,0.17
12,A28U A57G U66A,0.45
13,A28U A57G U74C,1.13
14,A28U A57G U76A C79A,0.86
15,A28U A57G U78C,0.41
16,A28U A57G U80C,0.74
17,A28U A57U U78C U80C,0.39
18,A28U A64G U69C,0.21
19,A28U A64G U78G,0.74
20,A28U A65C G73C,0.11
21,A28U A65G U69C U74A,0.24
22,A28U C29A C79U,0.26
23,A28U C29A U51C U67A,0.19
24,A28U C29G A35U U72A,0.17

row,Variant,self-cleavage
1,A28U C29U A35U U66C U69C,0.14
2,A28U C29U A75U,0.43
3,A28U C29U U51C,0.28
4,A28U C32A A47U A56U,0.14
5,A28U C32U A64U,0.1
6,A28U C32U C44U U49C G63A A65G U67C,0.09
7,A28U C34G C59A U69C U78C,0.06
8,A28U C34G U80C,0.09
9,A28U C34U A45C,0.09
10,A28U C34U A45G U48A,0.04
11,A28U C34U U67C,0.11
12,A28U C37U U41C,0.47
13,A28U C38A A57G G63A A77G U78C,0.07
14,A28U C38A U67A U72A U80C,0.27
15,A28U C38G U48C U74C,0.2
16,A28U C39A A57C,0.09
17,A28U C39A A57G A64G,0.09
18,A28U C39G C40U U69A U78C,0.04
19,A28U C39U U49C U69C U80C,0.07
20,A28U C40A A47U U72C,0.04
21,A28U C40A U41C U58C U60C,0.15
22,A28U C40A U67C U72A,0.11
23,A28U C40U A56G,0.31
24,A28U C40U U54C,0.5

row,Variant,self-cleavage
1,A28U C40U U74A U78C,0.59
2,A28U C44G U72A,0.14
3,A28U C50G U67C U76C U78C,0.07
4,A28U C50U U51C,0.58
5,A28U C50U U54A U72C,1.07
6,A28U C68G U72A,0.18
7,A28U G30A A64G U69C,0.1
8,A28U G30C A47G U54C G63U,0.19
9,A28U G30U A45U U51C A64G A77G,0.06
10,A28U G30U G70C U74A,0.06
11,A28U G33A A47G U51A A57C U60C C81G,0.01
12,A28U G33A A77U,0.05
13,A28U G33A U41C G63A A64U U72C,0.06
14,A28U G33U G46U A64G,0.06
15,A28U G36A A45G,0.16
16,A28U G36U A47G,0.39
17,A28U G36U A64G,0.17
18,A28U G42A A45U,0.3
19,A28U G46A A64U,0.19
20,A28U G46A U72A,0.11
21,A28U G46U U54A,0.13
22,A28U G63A A64G,0.42
23,A28U G63A U67C U80C,0.38
